{"source": "ChEMBL document CHEMBL5308541", "about": "“MAIP: An Open-Source Tool to Enrich High-Throughput Screening Output and Identify Novel, Druglike Molecules with Antimalarial Activity” (ACS Med Chem Lett, 2023)", "note": "Screen size: about 150,000 compounds; about 540 (0.36%) showed an effect of 50% or more. The list shows a part of the results."}
{"system": "Plasmodium falciparum", "test": "Primary screen in NF54 nanoGlo assay, in single point, at 2uM, 72h; a lower Z score goes with more inhibition", "format": "functional, Erythrocyte", "conditions": "timepoint 72 hour", "units": {"% Inhibition": "%"}}
{"smiles": "Cc1nn(CCC(=O)N(C)Cc2nccn2Cc2ccccc2)c(C)c1C", "% Inhibition": 7, "Z score": -1.19}
{"smiles": "Cn1c(-c2ccccc2)c(-c2nc(-c3ccccc3)c(-c3ccccc3)[nH]2)c2ccccc21", "% Inhibition": -16, "Z score": 3.5}
{"smiles": "COCCn1cc(CN[C@H](c2ccccc2)C(C)(C)C(=O)O)cn1", "% Inhibition": -14, "Z score": 2.15}
{"smiles": "O=C(Cc1cc2ccccc2[nH]c1=O)N[C@H](CO)Cc1ccc(O)cc1", "% Inhibition": -7, "Z score": 1.45}
{"smiles": "Cc1ccn2ncnc2c1NC(=O)NC1CC(CCO)C1", "note": "(configuration not stated)", "% Inhibition": 5, "Z score": -0.91}
{"smiles": "O=C1COc2ccc(Nc3nc(-c4ccccc4)c4ccccc4n3)cc2N1", "% Inhibition": -8, "Z score": 1.18}
{"smiles": "COc1cncc(-c2cccc([C@H](C)N3CCCC3)c2)c1", "% Inhibition": 3, "Z score": -0.46}
{"smiles": "CN1CC[C@@H](CNCc2ccc3cn[nH]c3c2)[C@@H]1c1cccnc1", "% Inhibition": -4, "Z score": 0.56}
{"smiles": "CC(C)c1nc(-c2ccc(N3CCN(C(=O)c4cc(-c5ccccc5)n[nH]4)CC3)nc2)no1", "% Inhibition": 2, "Z score": -0.36}
{"smiles": "COc1cccc2cc(C(=O)N(CCN(C)C)c3nc4ccc(OC(F)(F)F)cc4s3)oc12", "% Inhibition": 2, "Z score": -0.44}
{"smiles": "CN1CCN(CCOc2ccccc2CN2CC3CCC(C2)NC3)CC1", "note": "(configuration not stated)", "% Inhibition": -1, "Z score": 0.22}
{"smiles": "Nc1nccc(-c2ccc(C(=O)NC[C@H](O)CN3CCCCCC3)cc2)n1", "% Inhibition": -6, "Z score": 1.03}
{"smiles": "CCN(CC1CCN(C2CCN(C)CC2)CC1)C[C@@H](C)Cc1ccc2c(c1)OCO2", "% Inhibition": 21, "Z score": -3.69}
{"smiles": "COC1CCN(c2nc(CN3CCN(c4ccccc4)C[C@@H]3C)nc3ccc(Cl)cc23)CC1", "% Inhibition": -4, "Z score": 0.76}
{"smiles": "CO[C@@]1(C(=O)N2CCC(c3ccnc4ccccc34)CC2)CCOC1", "% Inhibition": 9, "Z score": -1.92}
{"smiles": "CCCCN(Cc1ccc(F)cc1)C(=O)[C@@H]1CC2(CCNCC2)CN1C", "% Inhibition": 1, "Z score": -0.13}
